# Experimental data from a collection of fitness landscapes (doi:10.1038/s41467-024-54723-y).
# Over roughly 18,000 sequences, “TetR repression strength (sort-seq, GFP reporter)” has its median near 0.23; the highest 2% begin near 0.68. The list shows a part of the results.
# Molecular target: TetR (class B, Tn10) (UniProt P04483)
# Assay: TetR repression strength (sort-seq, GFP reporter) (relative to tetO2 = 1); higher = stronger repression
# Conditions: E. coli
# In short: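 In LB with 50 µg/mL chloramphenicol, E. coli SIG10-MAX holding a low-copy library with eight randomized operator positions between a constitutive promoter and sfGFP, plus constitutive TetR, grew for 5 h at 37 °C. FACS then sorted 10^6 cells into 13 fluorescence bins for Illumina sequencing of each bin. Repression strength equals the top bin index plus one less the read-weighted mean bin, normalized to the unaltered operator. Values from three independent transformations were averaged when reads were ≥30 in every replicate and the CV was ≤0.5.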
# UniProt P04483, sequence (P04483 whole entry): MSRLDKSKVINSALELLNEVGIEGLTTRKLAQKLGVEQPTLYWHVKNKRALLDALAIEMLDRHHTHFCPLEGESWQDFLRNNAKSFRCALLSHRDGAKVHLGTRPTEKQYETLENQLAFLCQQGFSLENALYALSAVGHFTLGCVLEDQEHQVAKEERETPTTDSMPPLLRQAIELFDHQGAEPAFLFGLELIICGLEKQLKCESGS
row,Sequence,TetR repression strength
1,TCCCTAGCAGTTATTGAGA,0.476
2,TCCCTAGCAGTCTGCGAGA,0.223
3,TCCCTCTGAGTTTGGGAGA,0.0119
4,TCCCCAGCAGTGCTTGAGA,0.311
5,TCCCTATAAGTGAGTGAGA,0.693
6,TCCCGCGAAGTATGAGAGA,0.4
7,TCCCAAACAGTCTGAGAGA,0.58
8,TCCCTAAGAGTAATCGAGA,0.183
9,TCCCAGCCAGTCCTGGAGA,0.634
10,TCCCTTTAAGTTCGAGAGA,0.0484
11,TCCCTCGCAGTGTCAGAGA,0.181
12,TCCCGCCAAGTCCGTGAGA,0.625
13,TCCCTGTAAGTAAAGGAGA,0.286
14,TCCCATACAGTATAGGAGA,0.297
15,TCCCATGGAGTACGTGAGA,0.189
16,TCCCGGTTAGTTTTTGAGA,0.158
17,TCCCTATCAGTGCGCGAGA,0.487
18,TCCCTCTGAGTCGAGGAGA,0.282
19,TCCCTTGCAGTTGGGGAGA,0.275
20,TCCCCAGAAGTCGTTGAGA,0.061
21,TCCCAAGTAGTTTTCGAGA,0.224
22,TCCCAGCAAGTGATTGAGA,0.201
23,TCCCAGATAGTGATAGAGA,0.472
24,TCCCTGGCAGTGCGAGAGA,0.143
25,TCCCTGAAAGTTCTGGAGA,0.158
26,TCCCATCGAGTTGACGAGA,0.25

row,Sequence,TetR repression strength
1,TCCCTATCAGTGACTGAGA,0.722
2,TCCCATACAGTTCATGAGA,0.194
3,TCCCGGGCAGTGTACGAGA,0.406
4,TCCCTATCAGTAGTCGAGA,0.537
5,TCCCTGTTAGTTTGTGAGA,0.4
6,TCCCGTCCAGTTTGAGAGA,0.227
7,TCCCATAGAGTGTGAGAGA,0.216
8,TCCCTATTAGTGTCAGAGA,0.194
9,TCCCTTTTAGTTAGCGAGA,0.48
10,TCCCGCGGAGTGGGGGAGA,0.229
11,TCCCGATAAGTGGGGGAGA,0.152
12,TCCCAATAAGTCCAGGAGA,0.278
13,TCCCTATTAGTGTAGGAGA,0.0563
14,TCCCCCTCAGTGGGGGAGA,0.144
15,TCCCCTCGAGTGCATGAGA,0.334
16,TCCCTGGGAGTGTCGGAGA,0.17
17,TCCCGATAAGTTGCTGAGA,0.22
18,TCCCCATTAGTTCCGGAGA,0.569
19,TCCCATCGAGTTCATGAGA,0.17
20,TCCCGCAAAGTTGGGGAGA,0.42
21,TCCCTTTCAGTAATAGAGA,0.745
22,TCCCGGGCAGTATTCGAGA,0.136
23,TCCCTATCAGTTTGGGAGA,0.329
24,TCCCTGTGAGTTCGAGAGA,0.719
25,TCCCAGGGAGTACTTGAGA,0.234
26,TCCCGGTCAGTCGGAGAGA,0.277

row,Sequence,TetR repression strength
1,TCCCGAACAGTGAAGGAGA,0.223
2,TCCCGCGGAGTTCGTGAGA,0.227
3,TCCCGCCCAGTTGGTGAGA,0.401
4,TCCCAGTAAGTATATGAGA,0.289
5,TCCCGTTGAGTGTGAGAGA,0.361
6,TCCCTGTAAGTTCTAGAGA,0.329
7,TCCCAGTTAGTATTCGAGA,0.341
8,TCCCCTGAAGTGGGGGAGA,0.182
9,TCCCGATCAGTGACTGAGA,0.427
10,TCCCCGTAAGTCTATGAGA,0.331
11,TCCCTTATAGTAGGAGAGA,0.339
12,TCCCTATAAGTCAGGGAGA,0.324
13,TCCCAGACAGTCAAGGAGA,0.337
14,TCCCATTTAGTTGTCGAGA,0.162
15,TCCCTTTCAGTGCGGGAGA,0.234
16,TCCCGGCGAGTTGGGGAGA,0.0799
17,TCCCTATTAGTCTCAGAGA,0.132
18,TCCCTGTGAGTTGTTGAGA,0.109
19,TCCCGATCAGTGCCCGAGA,0.438
20,TCCCAGGTAGTTGTTGAGA,0.0622
21,TCCCACTCAGTTACAGAGA,0.358
22,TCCCCGTAAGTGCCGGAGA,0
23,TCCCACGTAGTTTCCGAGA,0.213
24,TCCCGATGAGTCATAGAGA,0.0429
25,TCCCCAACAGTGGATGAGA,0.251
26,TCCCTATCAGTTCCTGAGA,0.76

row,Sequence,TetR repression strength
1,TCCCGGGCAGTGATAGAGA,0.571
2,TCCCGTGGAGTGAGGGAGA,0.225
3,TCCCGTCCAGTACATGAGA,0.104
4,TCCCTGGTAGTGGGGGAGA,0.208
5,TCCCTTCGAGTGCTAGAGA,0.37
6,TCCCGACTAGTCAAAGAGA,0.421
7,TCCCTTAAAGTGGGAGAGA,0.0433
8,TCCCTGATAGTATTCGAGA,0.0766
9,TCCCTTCGAGTGAACGAGA,0.445
10,TCCCGAGTAGTCGGTGAGA,0.279
11,TCCCTAGGAGTAGTGGAGA,0.176
12,TCCCAGCGAGTCGAGGAGA,0.173
13,TCCCTTGTAGTTGGCGAGA,0.186
14,TCCCGGGCAGTTGGTGAGA,0.397
15,TCCCGTTAAGTAGTTGAGA,0.135
16,TCCCATTCAGTTACTGAGA,0.319
17,TCCCGCCCAGTGTTTGAGA,0.372
18,TCCCGGGGAGTCCGGGAGA,0.191
19,TCCCGGCTAGTCTATGAGA,0.383
20,TCCCACAGAGTATGGGAGA,0.143
21,TCCCAAACAGTAGGGGAGA,0.38
22,TCCCAGTTAGTCGAGGAGA,0.251
23,TCCCGTTCAGTTAGCGAGA,0.249
24,TCCCAGAGAGTGGCCGAGA,0.529
